{
  "source": "the supplement of paper PMC8728848",
  "test_in_all_cases": "glycan array binding signal (z-score within array); higher = stronger binding",
  "details_in_all_cases": "glycan notation: IUPAC condensed, linker removed",
  "key": {"[1]": {"molecular_target": "GlcNAc(b1-2)[GlcNAc(b1-4)]Man(a1-3)[GlcNAc(b1-2)[GlcNAc(b1-6)]Man(a1-6)]Man(b1-4)GlcNAc(b1-4)GlcNAc", "how_it_was_run": "(§1)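 Arrays were curated from the Consortium for Functional Glycomics database, 3228 in total, and kept only where the protein sequence was available. Binding is expressed as a within-array Z-score. This score was averaged across arrays of the same protein sequence at different concentrations or buffers and across linkers, and negative values can be read as non-binding.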"}, "[2]": {"molecular_target": "GlcNAc(b1-3)Fuc", "how_it_was_run": "as §1"}, "[3]": {"molecular_target": "GlcNAc(b1-3)Gal(b1-4)Glc", "how_it_was_run": "as §1"}, "[4]": {"molecular_target": "GlcNAc(b1-3)[GlcNAc(b1-6)]Gal(b1-4)GlcNAc(b1-3)[GlcNAc(b1-6)]Gal(b1-4)GlcNAc(b1-3)Gal(b1-4)Glc", "how_it_was_run": "as §1"}, "[5]": {"molecular_target": "GlcNAc(b1-4)GlcNAc", "how_it_was_run": "as §1"}, "[6]": {"molecular_target": "GlcNAc(b1-4)GlcNAc(b1-4)GlcNAc", "how_it_was_run": "as §1"}, "[7]": {"molecular_target": "HexA(a1-3)GalNAc4S(b1-4)GlcA(b1-3)GalNAc4S", "how_it_was_run": "as §1"}, "[8]": {"molecular_target": "HexA(a1-3)GalNAc4S(b1-4)GlcA(b1-3)GalNAc4S(b1-4)GlcA(b1-3)GalNAc4S(b1-4)GlcA(b1-3)GalNAc4S(b1-4)GlcA(b1-3)GalNAc4S(b1-4)GlcA(b1-3)GalNAc4S(b1-4)GlcA(b1-3)GalNAc4S", "how_it_was_run": "as §1"}, "[9]": {"molecular_target": "HexA(a1-3)GalNAc4S(b1-4)IdoA(a1-3)GalNAc4S", "how_it_was_run": "as §1"}, "[10]": {"molecular_target": "HexA(a1-3)GalNAc4S(b1-4)IdoA(a1-3)GalNAc4S(b1-4)IdoA(a1-3)GalNAc4S(b1-4)IdoA(a1-3)GalNAc4S(b1-4)IdoA(a1-3)GalNAc4S(b1-4)IdoA(a1-3)GalNAc4S(b1-4)IdoA(a1-3)GalNAc4S", "how_it_was_run": "as §1"}, "[11]": {"molecular_target": "HexA(a1-3)GalNAc6S(b1-4)GlcA(b1-3)GalNAc6S", "how_it_was_run": "as §1"}, "[12]": {"molecular_target": "HexA(a1-3)GalNAc6S(b1-4)GlcA(b1-3)GalNAc6S(b1-4)GlcA(b1-3)GalNAc6S(b1-4)GlcA(b1-3)GalNAc6S(b1-4)GlcA(b1-3)GalNAc6S(b1-4)GlcA(b1-3)GalNAc6S(b1-4)GlcA(b1-3)GalNAc6S", "how_it_was_run": "as §1"}, "[13]": {"molecular_target": "HexA(a1-4)GlcNAc(a1-4)HexA(a1-4)GlcNAc(a1-4)HexA(a1-4)GlcNAc(a1-4)HexA(a1-4)Man", "how_it_was_run": "as §1"}, "[14]": {"molecular_target": "HexA2S(a1-4)GlcNS6S", "how_it_was_run": "as §1"}, "[15]": {"molecular_target": "Kdn(a2-3)[GalNAc(b1-4)]Gal(b1-3)GlcNAc", "how_it_was_run": "as §1"}, "[16]": {"molecular_target": "Man(a1-2)Man", "how_it_was_run": "as §1"}, "[17]": {"molecular_target": "Man(a1-2)Man(a1-2)Man(a1-3)[Man(a1-2)Man(a1-3)[Man(a1-2)Man(a1-6)]Man(a1-6)]Man(b1-4)GlcNAc(b1-4)GlcNAc", "how_it_was_run": "as §1"}, "[18]": {"molecular_target": "Man(a1-2)Man(a1-2)Man(a1-3)[Man(a1-2)Man(a1-6)[Man(a1-3)]Man(a1-6)]Man(b1-4)GlcNAc(b1-4)GlcNAc", "how_it_was_run": "as §1"}, "[19]": {"molecular_target": "Man(a1-2)Man(a1-2)Man(a1-3)[Man(a1-3)[Man(a1-6)]Man(a1-6)]Man(b1-4)GlcNAc(b1-4)GlcNAc", "how_it_was_run": "as §1"}, "[20]": {"molecular_target": "Man(a1-2)Man(a1-3)[Man(a1-2)Man(a1-6)[Man(a1-3)]Man(a1-6)]Man(b1-4)GlcNAc(b1-4)GlcNAc", "how_it_was_run": "as §1"}, "[21]": {"molecular_target": "Man(a1-2)Man(a1-3)[Man(a1-3)[Man(a1-6)]Man(a1-6)]Man(b1-4)GlcNAc(b1-4)GlcNAc", "how_it_was_run": "as §1"}, "[22]": {"molecular_target": "Man(a1-3)Man", "how_it_was_run": "as §1"}, "[23]": {"molecular_target": "Man(a1-3)Man(a1-6)[Man(a1-3)]Man(b1-4)GlcNAc(b1-4)GlcNAc", "how_it_was_run": "as §1"}, "[24]": {"molecular_target": "Man(a1-3)Man(b1-4)GlcNAc", "how_it_was_run": "as §1"}, "[25]": {"molecular_target": "Man(a1-3)[Man(a1-6)]Man", "how_it_was_run": "as §1"}, "[26]": {"molecular_target": "Man(a1-3)[Man(a1-6)]Man(a1-6)Man(b1-4)GlcNAc(b1-4)GlcNAc", "how_it_was_run": "as §1"}, "[27]": {"molecular_target": "Man(a1-3)[Man(a1-6)]Man(a1-6)[Man(a1-3)]Man", "how_it_was_run": "as §1"}, "[28]": {"molecular_target": "Man(a1-3)[Man(a1-6)]Man(a1-6)[Man(a1-3)]Man(b1-4)GlcNAc(b1-4)GlcNAc", "how_it_was_run": "as §1"}, "[29]": {"molecular_target": "Man(a1-3)[Man(a1-6)]Man(b1-4)GlcNAc(b1-4)GlcNAc", "how_it_was_run": "as §1"}, "[30]": {"molecular_target": "Man(a1-3)[Man(a1-6)]Man(b1-4)GlcNAc(b1-4)[Fuc(a1-6)]GlcNAc", "how_it_was_run": "as §1"}, "[31]": {"molecular_target": "Man(a1-6)Man", "how_it_was_run": "as §1"}, "[32]": {"molecular_target": "Man(a1-6)Man(b1-4)GlcNAc(b1-4)GlcNAc", "how_it_was_run": "as §1"}, "[33]": {"molecular_target": "Man(b1-4)GlcNAc", "how_it_was_run": "as §1"}, "[34]": {"molecular_target": "Man(b1-4)Man(b1-4)Man(b1-4)Man", "how_it_was_run": "as §1"}, "[35]": {"molecular_target": "Man(b1-4)Man(b1-4)Man(b1-4)Man(b1-4)Man", "how_it_was_run": "as §1"}, "[36]": {"molecular_target": "Man(b1-4)Man(b1-4)Man(b1-4)Man(b1-4)Man(b1-4)Man", "how_it_was_run": "as §1"}, "[37]": {"molecular_target": "Man6P(a1-3)Man(a1-3)Man(a1-3)Man(a1-2)Man", "how_it_was_run": "as §1"}, "[38]": {"molecular_target": "Neu(a2-3)Gal(b1-4)Glc", "how_it_was_run": "as §1"}, "[39]": {"molecular_target": "Neu(a2-3)Gal(b1-4)GlcNAc(b1-3)Gal(b1-4)[Fuc(a1-3)]GlcNAc(b1-3)Gal(b1-4)Glc", "how_it_was_run": "as §1"}, "[40]": {"molecular_target": "Neu(a2-3)Gal(b1-4)GlcNAc6S(b1-3)Gal(b1-4)Glc", "how_it_was_run": "as §1"}, "[41]": {"molecular_target": "Neu(a2-3)Gal(b1-4)[Fuc(a1-3)]GlcNAc(b1-3)Gal(b1-4)Glc", "how_it_was_run": "as §1"}, "[42]": {"molecular_target": "Neu(a2-3)Gal(b1-4)[Fuc(a1-3)]GlcNAc6S(b1-3)Gal(b1-4)Glc", "how_it_was_run": "as §1"}, "[43]": {"molecular_target": "Neu(a2-3)Gal6S(b1-4)[Fuc(a1-3)]GlcN(b1-3)Gal(b1-4)Glc", "how_it_was_run": "as §1"}, "[44]": {"molecular_target": "Neu(a2-6)Gal(b1-4)Glc", "how_it_was_run": "as §1"}, "[45]": {"molecular_target": "Neu4Ac5Ac(a2-3)Gal(b1-4)Glc", "how_it_was_run": "as §1"}},
  "note": "The other results are listed elsewhere or left out.",
  "data": [
    {"binder": "Dectin-1 (Mus musculus), Q6QLQ4 (protein) GHNSGRNPEEKDNFLSRNKENHKPTESSLDEKVAPSKASQTTGGFSQPCLPNWIMHGKSCYLFSFSGNSWYGSKRHCSQLGAHLLKIDNSKEFEFIESQTSSHRINAFWIGLSRNQSEGPWFWEDGSAFFPNSFQVRNTAPQESLLHNCVWIHGSEVYNQICNTSSYSICEKEL", "values": [
      {"measurement": "glycan array binding signal (z-score)", "setting": "[1]", "result": -0.076},
      {"measurement": "glycan array binding signal (z-score)", "setting": "[2]", "result": -0.091},
      {"measurement": "glycan array binding signal (z-score)", "setting": "[3]", "result": -0.029},
      {"measurement": "glycan array binding signal (z-score)", "setting": "[4]", "result": -0.063},
      {"measurement": "glycan array binding signal (z-score)", "setting": "[5]", "result": -0.037},
      {"measurement": "glycan array binding signal (z-score)", "setting": "[6]", "result": -0.059},
      {"measurement": "glycan array binding signal (z-score)", "setting": "[7]", "result": -0.072},
      {"measurement": "glycan array binding signal (z-score)", "setting": "[8]", "result": -0.042},
      {"measurement": "glycan array binding signal (z-score)", "setting": "[9]", "result": -0.044},
      {"measurement": "glycan array binding signal (z-score)", "setting": "[10]", "result": -0.001},
      {"measurement": "glycan array binding signal (z-score)", "setting": "[11]", "result": -0.079},
      {"measurement": "glycan array binding signal (z-score)", "setting": "[12]", "result": 0.018},
      {"measurement": "glycan array binding signal (z-score)", "setting": "[13]", "result": -0.091},
      {"measurement": "glycan array binding signal (z-score)", "setting": "[14]", "result": -0.091},
      {"measurement": "glycan array binding signal (z-score)", "setting": "[15]", "result": -0.062},
      {"measurement": "glycan array binding signal (z-score)", "setting": "[16]", "result": -0.052},
      {"measurement": "glycan array binding signal (z-score)", "setting": "[17]", "result": -0.04},
      {"measurement": "glycan array binding signal (z-score)", "setting": "[18]", "result": -0.004},
      {"measurement": "glycan array binding signal (z-score)", "setting": "[19]", "result": -0.091},
      {"measurement": "glycan array binding signal (z-score)", "setting": "[20]", "result": -0.091},
      {"measurement": "glycan array binding signal (z-score)", "setting": "[21]", "result": -0.074},
      {"measurement": "glycan array binding signal (z-score)", "setting": "[22]", "result": -0.021},
      {"measurement": "glycan array binding signal (z-score)", "setting": "[23]", "result": -0.06},
      {"measurement": "glycan array binding signal (z-score)", "setting": "[24]", "result": -0.034},
      {"measurement": "glycan array binding signal (z-score)", "setting": "[25]", "result": -0.032},
      {"measurement": "glycan array binding signal (z-score)", "setting": "[26]", "result": -0.091},
      {"measurement": "glycan array binding signal (z-score)", "setting": "[27]", "result": -0.006},
      {"measurement": "glycan array binding signal (z-score)", "setting": "[28]", "result": -0.06},
      {"measurement": "glycan array binding signal (z-score)", "setting": "[29]", "result": -0.091},
      {"measurement": "glycan array binding signal (z-score)", "setting": "[30]", "result": -0.044},
      {"measurement": "glycan array binding signal (z-score)", "setting": "[31]", "result": 0.016},
      {"measurement": "glycan array binding signal (z-score)", "setting": "[32]", "result": -0.091},
      {"measurement": "glycan array binding signal (z-score)", "setting": "[33]", "result": -0.086},
      {"measurement": "glycan array binding signal (z-score)", "setting": "[34]", "result": -0.11},
      {"measurement": "glycan array binding signal (z-score)", "setting": "[35]", "result": -0.113},
      {"measurement": "glycan array binding signal (z-score)", "setting": "[36]", "result": -0.08},
      {"measurement": "glycan array binding signal (z-score)", "setting": "[37]", "result": -0.054},
      {"measurement": "glycan array binding signal (z-score)", "setting": "[38]", "result": -0.072},
      {"measurement": "glycan array binding signal (z-score)", "setting": "[39]", "result": -0.042},
      {"measurement": "glycan array binding signal (z-score)", "setting": "[40]", "result": -0.083},
      {"measurement": "glycan array binding signal (z-score)", "setting": "[41]", "result": -0.091},
      {"measurement": "glycan array binding signal (z-score)", "setting": "[42]", "result": -0.075},
      {"measurement": "glycan array binding signal (z-score)", "setting": "[43]", "result": -0.049},
      {"measurement": "glycan array binding signal (z-score)", "setting": "[44]", "result": -0.069},
      {"measurement": "glycan array binding signal (z-score)", "setting": "[45]", "result": -0.079}
    ]}
  ]
}
